Results: PMC12136788
This is one part of the list.

T1: UNK ZnF1-6 (called full-length) (human, UniProt Q9C0B0 30-357)
T1 sequence: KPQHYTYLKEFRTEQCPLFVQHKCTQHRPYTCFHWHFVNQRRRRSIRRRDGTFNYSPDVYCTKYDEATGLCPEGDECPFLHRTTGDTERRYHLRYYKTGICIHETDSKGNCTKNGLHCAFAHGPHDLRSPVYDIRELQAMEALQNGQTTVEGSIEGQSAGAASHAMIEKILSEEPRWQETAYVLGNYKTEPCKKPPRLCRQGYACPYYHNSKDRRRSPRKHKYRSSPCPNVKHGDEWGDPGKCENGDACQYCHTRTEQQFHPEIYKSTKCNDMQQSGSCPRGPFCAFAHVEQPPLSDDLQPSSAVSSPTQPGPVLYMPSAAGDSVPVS

B1: chr4:177362735:177362840:+|3pUTR|ENSG00000109674|unk|FALSE|unique (ssRNA)
RNA: GGGAGUUCUACAGUCCGACGAUCAAAGUGUUUUUAGUAUGCUUUUAGUCUCUUGUAACUGGGGAGAAGCAGUGUUUUUUUUUUAGGAAAGGAUUAUGCGACACAAUAAAAUAAGAUAUUCUGUCUGUAGUGAAUACAUUUCUCCAACAGAGGAUUGAGCAUCA
B2: chr1:27370145:27370587:-|three_prime_utr|ENSG00000142748|control|control|control (ssRNA)
RNA: GGGAGUUCUACAGUCCGACGAUCCCAGUGCUGCCACUGCCCCCAUGAAUGACCCAGGGCAAUCCUGUCUCCUCUGUGGGCCUUAGUUUCCGCAUCUGAGAAAUGGCAAUCAUGAAACAGGAUGGUGCAACAGUGAAGAAUUUGCAACAGAGGAUUGAGCAUCA
B3: chr17:19904301:19906232:-|three_prime_utr|ENSG00000108599|control|control|control (ssRNA)
RNA: GGGAGUUCUACAGUCCGACGAUCAACAGCACUAUAUUUCUGAUCUGUCACUGUUGUUUCCAGGAGAGAAUGGGAGACAAUCCUAGACUUCCACCAUAAUGCAGUUACCUGUAGGCAUAAUUGAUGCACAUGAUGUUCACACAGCAACAGAGGAUUGAGCAUCA
B4: chr11:62888716:62888817:+|3pUTR|ENSG00000168003|unk|FALSE|unique (ssRNA)
RNA: GGGAGUUCUACAGUCCGACGAUCUUUUCUCUUUUUUAAAAACAAACAAACAAACUGUUGCAGAUUAUGAGUGAACCCCCAAAUAGGGUGUUUUCUGCCUUCAAAUAAAAGUCACCCCUGCAUGGUGAAGUCUUCCCUCUGCUUCAACAGAGGAUUGAGCAUCA
B5: chr1:162523450:162523604:+|3pUTR|ENSG00000152332|msi1|FALSE|unique (ssRNA)
RNA: GGGAGUUCUACAGUCCGACGAUCAGACUAAGUUGUGCCAGAUGUAAAUCAACCCCUCUUUUAGUUUACUUUAGACUUUGUAUUAGCUCAUCUUUUUUGUAGUAAAUCUAUAGUUUUAAGGUUUCUCAAGAUGUGGCUCUACCUCAACAGAGGAUUGAGCAUCA
B6: chr5:160402147:160402258:-|3pUTR|ENSG00000164609|unk|FALSE|unique (ssRNA)
RNA: GGGAGUUCUACAGUCCGACGAUCAUGGUUUACAUUACCGUUUGUUUUCAUUGUGAUUGCCCCUAUGUAACAAUCAUGAAUAUUAGAUUUUUUAAAUUGUAGAAUAUCCUAAUAUUUAUAGCCAGCAGCUGUUACUUUGUUUGUCAACAGAGGAUUGAGCAUCA
B7: chrX:74588119:74588220:-|3pUTR|ENSG00000131263|msi1|total|mutant (ssRNA)
RNA: GGGAGUUCUACAGUCCGACGAUCUCCGAAAAUGCUGGGAUUACAGGCGUGAGCCACCAUGUCCAGCCAAAGUUGAGGUUUAUCCGUACUAUCCGAAACAAAAUUGAGCAAGUUAAGUUAAAAGUUUGCUGACUUUGUAUCAACCAACAGAGGAUUGAGCAUCA
B8: chr15:48342169:48342270:+|3pUTR|ENSG00000128951|msi1_unk|FALSE|overlapping (ssRNA)
RNA: GGGAGUUCUACAGUCCGACGAUCAAAAAAAAAAAAAGUUUUUGCUUCAAGUGUUUUGGUGUUUUGCACUUCUGUAAACUUACUAGCUUUACCUUCUAAAAGUACUGCAUUUUUUACUUUUUUUUAUGAUCAAGGAAAAGAUCACAACAGAGGAUUGAGCAUCA
B9: chr12:98549714:98549829:+|3pUTR|ENSG00000120802|unk|FALSE|unique (ssRNA)
RNA: GGGAGUUCUACAGUCCGACGAUCGAAGAUGUAUAUUUAGACCAGCACACAAUUUUGAUUUCAAUUAGCCUUAUUCUAAUAUUUAGCUUUUAGAUCUUUCAUACACAUUUUCACGUACUUUGCAAUUGAGACCAGAAAGACUUGCAACAGAGGAUUGAGCAUCA
B10: chr1:24654915:24655033:+|CDS|ENSG00000133226|unk|FALSE|unique (ssRNA)
RNA: GGGAGUUCUACAGUCCGACGAUCUCACGGUCACCACCAAAGAAGCCUCCCAAGAGGACAUCCAGCCCCCCUCGGAAAACUCGUAGGUUAUCUCCUUCAGCAAGUCCUCCAAGGCGAAGGCACAGGCCAUCACCUCCUGCAACUCAACAGAGGAUUGAGCAUCA
B11: chr3:98797553:98797658:-|3pUTR|ENSG00000057019|msi1|FALSE|unique (ssRNA)
RNA: GGGAGUUCUACAGUCCGACGAUCAUUUCAUUCAUUGAAGAAUCAAUACAUAUUUUGUUUCAAAAUGUUUGAAACAAAAGACAUAGAUGGUAGACUUUUAUUAAAACAUAUAUGGAUGUGGAAAGCACAUAUAUUAAUGCAGUCCAACAGAGGAUUGAGCAUCA
B12: chr17:29548703:29548809:+|3pUTR|ENSG00000160551|unk|total|mutant (ssRNA)
RNA: GGGAGUUCUACAGUCCGACGAUCAGCACUUGUGAGUGAAAAAUCAUGUAAUUAUCUGUAAAUAUGCCGCUAACAAAUUGACCCCGUUUCUGUAUUUUUUUGUUUUUGUACUAAAGUUUACCGGUCUGUGCCAGCCCGAGAGAACAACAGAGGAUUGAGCAUCA
B13: chr10:30336814:30336915:-|CDS|ENSG00000107951|unk|FALSE|unique (ssRNA)
RNA: GGGAGUUCUACAGUCCGACGAUCGUAUUUUCCAGACUGCAUAGUCAGACCCUUUGGCUCCUCAGUCAACACUUUUGGGAAGUUAGGAUGUGAUUUGGACAUGUUUUUGGAUCUAGAUGAAACCAGAAACCUCAGCGCUCACAACAACAGAGGAUUGAGCAUCA
B14: chr8:100258838:100258944:-|CDS|ENSG00000034677|unk|FALSE|unique (ssRNA)
RNA: GGGAGUUCUACAGUCCGACGAUCAGUGAAUUUGAGGCUCCAUCCCUCAGUGACAGUAUGCCUUCUGUAGCAGAUUCUCACUCUAGUCAUUUUUCUGAAUUUAGUUGUUCUGACCUAGAAAGCAUGAAAACUUCUUGUAGUCAUCAACAGAGGAUUGAGCAUCA
B15: ENSG00000198663:stop:overlap|stop_codon|ENSG00000198663|stop_codon|NA|stop_codon (ssRNA)
RNA: GGGAGUUCUACAGUCCGACGAUCUUAUAGCCAGAGGGGUCCAGCCUUUGGUCAUCUGCGAUGGAACCGCUUUCUCAGAACUGUAGGAAAUAGAACUGUGCACAGGAACAGCUUCCAGAGCCGAAAACCAGGUUGAAAGGGGAACAACAGAGGAUUGAGCAUCA
B16: ENSG00000139350:stop:overlap|stop_codon|ENSG00000139350|stop_codon|NA|stop_codon (ssRNA)
RNA: GGGAGUUCUACAGUCCGACGAUCAUUUAUCUAGUACUCCUUUUGGCCAUGGUAGUAACCAGGCUCUCCAAUCCAGUGUUGAAUAGAAGUGAUGAUAGUGGACAUCUUUAUUUUGUCCCCAAAUUCUGGAAGAAGCAUUCAAUUCAACAGAGGAUUGAGCAUCA
B17: chr2:74214837:74214938:+|3pUTR|ENSG00000065911|msi1_unk|total|mutant (ssRNA)
RNA: GGGAGUUCUACAGUCCGACGAUCCUGUCCUUUUGAGGCUCCGUCAGUUUAUUGGGAAAAUGUUCCGGAUUAUUCCUUGCUAUCCGUACUCAUUUUAUGUAUGUUACCCUUCAGUAAGUUCUCCCCAUUUCCGUUUUCCCGGACCAACAGAGGAUUGAGCAUCA
B18: chr2:42282796:42282970:+|CDS|ENSG00000143924|unk|FALSE|unique (ssRNA)
RNA: GGGAGUUCUACAGUCCGACGAUCAUAUGGUUAUCGAGGAAAGGACUGUAGAGCUAAUGUUUACCUUCUUCCGACCGGGAAAAUAGUUUAUUUCAUUGCAUCAGUAGUAGUACUAUUUAAUUAUGAGGAGAGAACUCAGCGACACAACAGAGGAUUGAGCAUCA
B19: chr12:100341478:100341579:+|3pUTR|ENSG00000136021|unk|total|mutant (ssRNA)
RNA: GGGAGUUCUACAGUCCGACGAUCCUAUUCUCCUAUUGCUAAAUGUGUGAUAUACCGAGAGGAUGUAUAAAAGGAAAUGGAAACCGACUAUGUACUUGUCUGGUUUUUGUUUGUUUUUAUUUUGGAAUGCUUAUAAGCCUCCUUCAACAGAGGAUUGAGCAUCA
B20: ENSG00000136451:be:win_3051|3pUTR|ENSG00000136451|bound_else_gene|NA|bound_elsewhere_windowed (ssRNA)
RNA: GGGAGUUCUACAGUCCGACGAUCUGUGUUAAUCUUGCAGAAUGUUUGCAGGACUGACUAUCAAACUGGAUGAUUUCCAUUUAUACCCUACUGUGUCAGUUCAAGCAUCAAAAUACCUUGCAUCUGAGACAGACUUCCUACAUCCAACAGAGGAUUGAGCAUCA
B21: chr11:103061782:103061883:-|3pUTR|ENSG00000137692|unk|FALSE|unique (ssRNA)
RNA: GGGAGUUCUACAGUCCGACGAUCAAGACUGUUGGCCUUGACUUCUGGGAUAAUGAUUUGCUGAUGCAGCUAAUAAACAUUUCUAGGUAUUGGAAAAAUGCUCCUACUUUUAGCUCUGGGUUUCUAUAAAAGCUGCCAAGGUCUCAACAGAGGAUUGAGCAUCA
B22: chr15:34980028:34980129:-|3pUTR|ENSG00000198146|msi1|total|mutant (ssRNA)
RNA: GGGAGUUCUACAGUCCGACGAUCGGUUCUGUUAUUUAAGCCUGUUCUAAGUUUGAUCAAAUGGCAAUGACCCGGUCCCGUUUCCGUUUUUAUUUUUGCAGGAGUCUAUUGCUAAAGAAUUUUAUUUUGAUGCUUGUUAAAUUUCAACAGAGGAUUGAGCAUCA

What follows are binders tested against T1, UNK ZnF1-6 (called full-length) (assay: nsRBNS (natural sequence RNA bind-n-seq); RBNS binding buffer (assumed for nsRBNS): 25 mM Tris pH 7.5, 150 mM KCl, 3 mM MgCl2, 0.01% Triton X-100, 500 ug/ml BSA, 20 U/ml SUPERase-In, 4 C; UNK is unkempt and MSI1 is Musashi-1; names of the RNAs are library labels; protein concentration not given here; high values mean tight binding).

| Binder | binding signal [enrichment R] |
| --- | --- |
| B1 | 1.93 |
| B2 | 0.792 |
| B3 | 0.707 |
| B4 | 0.635 |
| B5 | 58.2 |
| B6 | 5.04 |
| B7 | 0.335 |
| B8 | 0.399 |
| B9 | 32.9 |
| B10 | 0.707 |
| B11 | 1.11 |
| B12 | 0.49 |
| B13 | 0.644 |
| B14 | 13.2 |
| B15 | 0.402 |
| B16 | 1.19 |
| B17 | 0.338 |
| B18 | 3.02 |
| B19 | 0.311 |
| B20 | 0.215 |
| B21 | 0.656 |
| B22 | 0.612 |
